Test results reported in article PMC10577379, “Isolation of anticancer bioactive secondary metabolites from the sponge-derived endophytic fungi Penicillium sp. and in-silico computational docking approach” (Frontiers in Microbiology, 2023).

These compounds were tested on Influenza A virus H1N1 (ATCC, VR-1520) (assay: Antiviral CPE inhibition assay). Conditions: H1N1, 48 h, read-out: Antiviral IC50 H1N1.
With `CC12CCCC(O1)c1c(cc3c(c1O)C(=O)c1c(O)cc(O)cc1C3=O)O2` (stereo not drawn) [Compound 1, averufin] the IC50 was > 50 nM. For `CCCCC[C@@H](c1ccc(Oc2cc(C)cc(O)c2)cc1)c1c(O)cc2c(c1O)C(=O)c1cc(O)cc(O)c1C2=O` [Compound 2, aspergilol-A], the IC50 was > 50 nM. For `COC(=O)c1cc(O)cc(OC)c1C(=O)c1c(O)cc(C)cc1O` [Compound 3, sulochrin], the IC50 was > 50 nM. `COc1cc(O)cc2c1C(=O)c1c(O)cc(C)cc1C2=O` [Compound 5, methyl emodin] was tested, and the IC50 was > 50 nM. `Cc1cc(O)cc(Oc2cc(C)cc(O)c2)c1` [Compound 7, diorcinol] was tested, and the IC50 was > 50 nM. `CCOC(=O)C1=C[C@@H](OC(CC)CC)[C@H](NC(C)=O)[C@@H](N)C1` [Tamiflu, reference compound] was tested, and the IC50 was 15.2 nM.

What follows are compounds tested on Influenza A virus H3N2 (ATCC, VR-1679) (assay: Antiviral CPE inhibition assay). Conditions: H3N2, 48 h, read-out: Antiviral IC50 H3N2.
With `CC12CCCC(O1)c1c(cc3c(c1O)C(=O)c1c(O)cc(O)cc1C3=O)O2` (stereo not drawn) [Compound 1, averufin] the IC50 was > 50 nM. For `CCCCC[C@@H](c1ccc(Oc2cc(C)cc(O)c2)cc1)c1c(O)cc2c(c1O)C(=O)c1cc(O)cc(O)c1C2=O` [Compound 2, aspergilol-A], the IC50 was > 50 nM. For `COC(=O)c1cc(O)cc(OC)c1C(=O)c1c(O)cc(C)cc1O` [Compound 3, sulochrin], the IC50 was > 50 nM. In the case of `COc1cc(O)cc2c1C(=O)c1c(O)cc(C)cc1C2=O` [Compound 5, methyl emodin], the IC50 is reported as > 50 nM. With `Cc1cc(O)cc(Oc2cc(C)cc(O)c2)c1` [Compound 7, diorcinol] the IC50 was > 50 nM. `CCOC(=O)C1=C[C@@H](OC(CC)CC)[C@H](NC(C)=O)[C@@H](N)C1` [Tamiflu, reference compound] was tested, and the IC50 was 17.6 nM.
